# Laboratory results as given in the supplement of paper PMC3334620.
# In all, about 33,000 sequences were measured (“E-score (-0.5 to 0.5)”: median about -0.035, highest 2% from about 0.35 on). This is one part of the list.
# Biological target: T1, Pdr3 (UniProt P33200)
# T1 sequence: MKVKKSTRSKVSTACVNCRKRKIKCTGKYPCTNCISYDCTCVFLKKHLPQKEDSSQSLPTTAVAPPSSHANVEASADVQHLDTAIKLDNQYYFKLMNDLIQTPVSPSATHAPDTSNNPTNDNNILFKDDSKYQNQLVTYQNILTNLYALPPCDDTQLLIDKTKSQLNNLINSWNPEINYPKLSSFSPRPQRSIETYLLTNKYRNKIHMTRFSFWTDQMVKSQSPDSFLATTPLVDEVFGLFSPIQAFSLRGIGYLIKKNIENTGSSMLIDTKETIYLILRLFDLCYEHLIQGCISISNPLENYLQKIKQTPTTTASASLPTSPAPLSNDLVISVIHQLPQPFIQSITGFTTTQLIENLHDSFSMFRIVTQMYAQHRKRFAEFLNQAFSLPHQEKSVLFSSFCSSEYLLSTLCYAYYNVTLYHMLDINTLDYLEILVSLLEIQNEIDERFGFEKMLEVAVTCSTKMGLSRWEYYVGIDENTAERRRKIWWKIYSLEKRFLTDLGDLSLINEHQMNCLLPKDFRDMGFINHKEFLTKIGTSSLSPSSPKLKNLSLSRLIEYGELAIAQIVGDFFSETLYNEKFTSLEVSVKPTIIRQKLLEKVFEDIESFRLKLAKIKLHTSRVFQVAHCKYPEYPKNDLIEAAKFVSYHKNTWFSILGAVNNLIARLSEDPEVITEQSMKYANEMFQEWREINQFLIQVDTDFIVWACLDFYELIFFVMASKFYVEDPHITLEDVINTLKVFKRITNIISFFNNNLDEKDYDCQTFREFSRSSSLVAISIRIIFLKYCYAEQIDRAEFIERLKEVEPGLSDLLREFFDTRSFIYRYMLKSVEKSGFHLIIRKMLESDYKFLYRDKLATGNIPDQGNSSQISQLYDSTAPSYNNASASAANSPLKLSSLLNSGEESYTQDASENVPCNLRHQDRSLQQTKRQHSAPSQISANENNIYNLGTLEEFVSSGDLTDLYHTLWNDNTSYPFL
# Test: PBM E-score (8-mer binding enrichment) (E-score (-0.5 to 0.5)); higher = stronger / more preferred TF binding; most listed sequences are background and not binding sites
# Settings: protein concentration: 200 nM; construct: GST-full length
# Summary of the method: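 Detection of bound protein used fluorescent anti-GST, with scans normalised by masliner. The proteins were GST-tagged yeast transcription factors applied at about 100-200 nM to universal all-10-mer Agilent arrays made double-stranded by primer extension. Each ungapped eight-base word, pooled with its reverse complement, was scored with an E-score from the Universal PBM Analysis Suite.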
row,Sequence,PBM E-score
1,CCATGGTC,-0.143
2,AAAAACAA,0.0667
3,CGTCCTCA,-0.154
4,GGCTGAGA,-0.00025
5,CGGTCAAA,0.146
6,GGAGGAAC,0.139
7,ATAAGGCG,-0.0262
8,AGCTCAAA,0.0219
9,CGACGTGA,-0.036
10,ATCTCAAG,0.00406
11,AGGCTTGA,-0.135
12,CAAGACTC,-0.0856
13,CCGGTCAA,0.233
14,CGGCACCC,0.156
15,CATCGCGA,0.0669
16,CCAGTTCA,0.00274
17,GAGGATAC,-0.18
18,CCTCAGTA,-0.115
19,AATCATTA,-0.213
20,CAGGTGGC,-0.197
21,ATAGTTGC,0.0259
22,ACTTGAAT,-0.0436
23,ACCAGCCG,0.196
24,CGTAGTCA,-0.0814
25,TACAGAAA,-0.0516

row,Sequence,PBM E-score
1,CGACCTCC,0.208
2,AGGGGAAG,-0.231
3,CCTGTGTC,-0.192
4,CGTAGTAC,-0.0772
5,GATCGGGA,0.171
6,CTAAATAG,-0.161
7,AGTCAATG,-0.257
8,AAAGGGGT,-0.236
9,CCTACTTC,-0.126
10,ATATACAC,-0.00957
11,AACAACGG,0.187
12,CCGCTCAA,0.142
13,GCCTCCGA,0.139
14,ATCAGCGC,0.207
15,AGACACTG,-0.147
16,CTGCATCA,-0.0534
17,GCTGGGCC,-0.195
18,CGGGAATC,0.334
19,TATTCACA,0.13
20,CACTCGCG,0.0224
21,TAGTTTGA,-0.0633
22,CTCGTACA,-0.121
23,ACGTGTGA,-0.23
24,ATAACGCC,0.0768
25,ACTGTTCG,-0.0931

row,Sequence,PBM E-score
1,ATCGCGTA,-0.0847
2,AACTCTTC,-0.154
3,TAAACGTA,-0.137
4,AACCGGTG,0.235
5,ACCTATGG,-0.133
6,CTATCCCA,-0.0312
7,GAGAAACC,0.0126
8,AGACGAGG,-0.119
9,CCTCCTTA,-0.298
10,AGTAATTA,-0.0198
11,CGGCCCAC,-0.0237
12,GGCATCGA,-0.0672
13,CCCTCCGC,0.163
14,AATACACA,-0.0767
15,ACTTCAGA,-0.0406
16,TAGCGCCA,-0.218
17,CAACTGAG,-0.0168
18,GACAACCA,-0.00959
19,CGGTCAAC,0.176
20,AGACGCCG,0.153
21,GAAGCCGA,0.287
22,TAGGGATA,-0.113
23,CTGGTTAA,-0.0299
24,CCTCTTAG,0.0663
25,ATGTGGAA,0.0594

row,Sequence,PBM E-score
1,GGAATAAC,0.31
2,ACGCGGAT,0.244
3,ATTTCCCG,0.369
4,TAGAGGAA,-0.0807
5,ATCACGCA,0.0202
6,AAAGCGCT,0.163
7,GTAGCGGA,0.251
8,CGTCGGGA,0.309
9,CTGGTCGC,0.0352
10,ATTGGCAA,-0.0742
11,CGTCACTA,0.106
12,CCAATCAG,-0.225
13,AGCGGCAG,0.0528
14,CCGTGTTA,0.145
15,ACCTTTAG,-0.134
16,ACTAAGGC,-0.179
17,ATGTACTA,-0.0639
18,CCTGTTAA,-0.127
19,ATAGAACA,-0.059
20,AAAGGTCT,-0.263
21,AGAGTGTA,-0.0716
22,ATTGTTAA,-0.0968
23,CACCGCTA,-0.118
24,CTGTTAAG,-0.337
25,GTCGATTA,0.00988

row,Sequence,PBM E-score
1,TCACGTAA,-0.224
2,CGGCCAAA,0.208
3,TCCATGAA,-0.00849
4,CGAGCAAC,0.0747
5,GGTTACCA,0.137
6,GCCCCCGC,0.149
7,ACGGCCAT,-0.0757
8,GACGCTGA,-0.184
9,GCTTGACA,-0.0842
10,AACTGTGT,0.0557
11,AGCAAGCA,-0.241
12,CCGGCTTC,0.322
13,GAGGGTGC,-0.232
14,AAGTTGAT,0.00488
15,CCTCTCTC,-0.118
16,AGTGTCTG,-0.1
17,ACTGATGC,-0.0477
18,CATAATCA,-0.0129
19,TCGTGCAA,-0.0503
20,CGCATGAC,0.0259
21,ACCCGGTC,0.199
22,ACTTATTC,0.124
23,AAGCTTCG,-0.00451
24,AATTAATA,0.254
25,ATAATATA,0.147

row,Sequence,PBM E-score
1,ATCACGTG,0.0284
2,CGCTCCAG,-0.0694
3,GAGTGCGC,0.0772
4,ATATGATA,0.209
5,TCAGAGCA,-0.138
6,AAATTCCA,0.0847
7,GCACGGCA,0.103
8,GGGAGGTA,0.0951
9,ACAACAAC,-0.119
10,ACTCAAAT,-0.0697
11,GACTTAAC,-0.35
12,ACGCTGTG,-0.112
13,AGGTGTCG,-0.116
14,CTGGCCCA,-0.232
15,AGCCGCTA,-0.0934
16,CATCAGGA,0.17
17,AGACACCC,-0.149
18,AATCAAGC,-0.0517
19,CAACTTAC,-0.0863
20,CCAGCCAC,-0.0288
21,ATTATTGA,-0.188
22,GAGCCTAC,0.0395
23,ATGAAACG,0.0661
24,CCCCGTAA,-0.0098
25,GAAAAGTC,-0.00074

row,Sequence,PBM E-score
1,AAGAGAGG,-0.0863
2,AAATGTTG,-0.214
3,TACATGGA,-0.00152
4,AGAATGCT,-0.263
5,CCTCTCAG,-0.29
6,GACTCCGC,0.282
7,GGCGCTAA,-0.00474
8,CTTTGCAA,-0.014
9,ACCGGAAC,0.474
10,ACCCGTTG,0.0389
11,AGACGTTG,-0.0555
12,AGTAGTTC,0.204
13,CAAGCGCC,-0.00054
14,CACAGGAC,-0.0463
15,AGGGTTGC,-0.0666
16,ACTTTAGG,-0.29
17,AAATCGAT,-0.0751
18,GTCGGGCA,-0.132
19,ACCTAGAG,-0.257
20,GGTTCTCA,-0.0509
21,CACTTCGG,0.133
22,AGTGGCAG,-0.0107
